Measured values: the BET-seq Pho4 binding data (Le et al. 2018)
The list shows a part of the results. Values were computed here from the reads of four pooled replicates and scatter widely.

biological target: T1, Pho4 (S. cerevisiae) (UniProt P07270); test: relative binding free energy (BET-seq); higher = weaker binding; details: reference: library average
T1 sequence: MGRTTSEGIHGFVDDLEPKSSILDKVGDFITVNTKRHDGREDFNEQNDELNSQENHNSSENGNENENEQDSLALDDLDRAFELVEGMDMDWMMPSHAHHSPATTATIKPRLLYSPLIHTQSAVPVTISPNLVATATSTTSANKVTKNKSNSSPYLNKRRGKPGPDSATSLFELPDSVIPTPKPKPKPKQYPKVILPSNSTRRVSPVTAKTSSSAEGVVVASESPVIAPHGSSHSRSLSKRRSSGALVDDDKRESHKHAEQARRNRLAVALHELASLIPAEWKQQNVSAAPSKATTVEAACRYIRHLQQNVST

Sequence | relative binding free energy [kcal/mol]
GCGATCACGTGCGGGT | 0.1
GGTGTCACGTGGAGAC | 0.16
GTCTTCACGTGGCGAT | 0.43
TGCCTCACGTGTGTTT | 0.19
AGAAACACGTGGGGAT | -0.09
GACTGCACGTGGCGGT | 0
GGTCTCACGTGCGTGT | 0.07
GTCGGCACGTGTTGCG | 0.08
AGGTGCACGTGGGATC | -0.14
CTAATCACGTGATGTG | 0.25
GTACTCACGTGGTCGG | 0.22
CGGTTCACGTGTTTAG | 0.24
TGGTTCACGTGGAGGC | 0.32
GTTATCACGTGATGGA | 0.42
TTTATCACGTGGCCGT | 0.12
TGCTGCACGTGACGGG | 0.08
TATGTCACGTGTACGA | 0.04
TCAGGCACGTGGATTG | 0.02
TGGTTCACGTGGTGAC | 0.13
TGTTCCACGTGGCGGT | -0.16
AGTTACACGTGAGCTG | 0.28
CTGATCACGTGTATTT | 0.35
AATTTCACGTGGTTTT | 0.33
AGTCGCACGTGCGGAG | 0.01
GATTACACGTGTTGGG | 0.21
TGACTCACGTGTTTAG | 0.15

Sequence | relative binding free energy [kcal/mol]
GGGTTCACGTGGTGGA | 0.27
AACGGCACGTGGGGAA | -0.16
TGGTGCACGTGTGGGT | 0.06
TTATACACGTGCGCGT | -0.05
AGGTTCACGTGGGTGA | 0.16
ACGCTCACGTGGGGTG | -0.04
GTTTGCACGTGAAGGC | 0.32
AGCGTCACGTGTGTAT | 0.14
AGTTTCACGTGATAGA | 0.38
AAGGTCACGTGCACGG | 0.11
GTAGGCACGTGAAGGC | 0.1
TAGGTCACGTGGGAAC | 0.05
GGCTGCACGTGGCCGG | -0.05
ATTGTCACGTGCCTGG | 0.07
GGGGCCACGTGGGAGG | -0.19
TTTGTCACGTGGTTGT | 0.11
TTAGTCACGTGGTAGT | 0.05
TACATCACGTGGTATT | 0.02
TATCGCACGTGGCTGG | -0.02
TATGACACGTGGGCCG | -0.02
AATTTCACGTGTGATG | 0.38
ATGCGCACGTGGTCGG | -0.26
GAATTCACGTGGTTGT | 0.36
AGAGTCACGTGGGTGG | -0.08
GCATACACGTGGGGGA | 0.01
CGGTACACGTGTTTGA | 0.06

Sequence | relative binding free energy [kcal/mol]
TCAGGCACGTGGTGTG | -0.25
GTTAGCACGTGAATTT | 0.32
GTTTTCACGTGAGGCC | 0.37
CGGTACACGTGACTGG | 0.2
TGTTGCACGTGATAAG | 0.18
TCACTCACGTGTTGTT | 0.16
TGCTTCACGTGGTGAG | 0.16
GGCCTCACGTGGAGTG | 0.2
ATGTACACGTGACGGG | 0.18
ATTGGCACGTGGGTCC | -0.09
GGTACCACGTGCTTGG | -0.04
TATTACACGTGGGTAG | -0.05
GCGTTCACGTGGGTTG | 0.16
TTTGTCACGTGGGCTA | -0.01
GTAGACACGTGATTGT | 0.28
CGAGTCACGTGGTGAA | 0.08
TACGTCACGTGGTCTG | 0.05
TATGTCACGTGATGCT | 0.11
GTACTCACGTGTTTAG | 0.19
TCGGGCACGTGATATT | -0.03
GGAAGCACGTGGGAGT | -0.2
GTACCCACGTGGTTGG | -0.04
GTTAGCACGTGCGGCG | -0.13
TTCATCACGTGTGCGG | 0.18
TGGTTCACGTGCGAGC | 0.32
ATATGCACGTGACAGG | -0.03

Sequence | relative binding free energy [kcal/mol]
ATGTACACGTGTGGAA | 0.07
GGGCGCACGTGAGGGT | 0.21
TTGGTCACGTGATACA | 0.16
TGGTGCACGTGCGAAA | 0.11
GGGTCCACGTGTTGGT | 0.09
CTTGGCACGTGGTAGT | -0.18
TAGTTCACGTGTGCGG | 0.36
GGATTCACGTGTGGGA | 0.35
TGTAGCACGTGTTTAT | -0.03
TAATACACGTGTAGTT | 0.04
GTTTTCACGTGACGAG | 0.43
TGGTTCACGTGGCTGT | 0.26
AATCGCACGTGTTTTT | -0.06
TAATTCACGTGTAAGT | 0.15
GTTAACACGTGCTTTG | 0
GATAGCACGTGGTAAT | -0.02
ATTGCCACGTGGTTGA | -0.03
TATGGCACGTGAGTCG | 0.07
GTGTTCACGTGGCAGT | 0.26
GAGGGCACGTGGTATT | -0.13
TTGGCCACGTGGGCGA | -0.18
TTGTACACGTGAGTCG | 0.11
TCGGGCACGTGATTGG | 0.05
TTGGGCACGTGCATGA | 0.01
AGTTTCACGTGATGGA | 0.39
GGTGTCACGTGTACGT | 0.14

Sequence | relative binding free energy [kcal/mol]
GTATTCACGTGGGACA | 0.21
TTGAGCACGTGATAAG | 0
TGGCTCACGTGATGGT | 0.4
ATCAGCACGTGTTTGA | -0.08
GGGTTCACGTGAACAT | 0.45
TATGTCACGTGTCGTC | 0.18
CTATGCACGTGGTGCG | -0.19
TTTGCCACGTGTGATT | 0.04
AAACGCACGTGGGTTG | -0.32
TGCAACACGTGTGGGC | 0.02
AGTCACACGTGGGGTG | -0.09
CAGGTCACGTGGCGGG | 0.03
TCGATCACGTGGGTTT | 0.02
GGAGGCACGTGTTTTT | -0.06
TGTTACACGTGCGTCT | 0.01
TGGTTCACGTGTATCG | 0.39
ATAGGCACGTGTCATT | -0.06
TTATCCACGTGGTGGG | -0.12
TGGTACACGTGCTTGT | -0.05
CGAAGCACGTGGTTGA | 0.02
ATAATCACGTGAGGAG | 0.25
AGAGGCACGTGGAGTA | -0.17
ATATGCACGTGTGAGC | -0.02
TTTGGCACGTGGTGGA | -0.07
TTGTACACGTGTGTCG | 0.25
GAACGCACGTGTGTGT | -0.16

Sequence | relative binding free energy [kcal/mol]
GGCTTCACGTGGGACG | 0.17
GAGTGCACGTGAAGGT | 0.21
CAAATCACGTGGGGTA | 0.15
GTACACACGTGGGATT | 0.03
ATTTACACGTGGTTCT | 0.08
TCGTGCACGTGTAGTC | 0.02
GGATTCACGTGTCGTG | 0.17
CGAGTCACGTGAGTGT | 0.26
TGTCACACGTGGATTT | 0.12
GTTGACACGTGTGATA | 0.15
CTTGACACGTGTTTGA | -0.07
TACTTCACGTGGGGGG | 0.16
TTTGGCACGTGTACAT | -0.04
CTTGGCACGTGTAGCG | -0.14
CTTAACACGTGTTTTT | 0.05
TGTTACACGTGTGATT | 0.3
GGGTACACGTGAGGTT | 0.29
CAGGGCACGTGAGTAG | -0.01
TGGACCACGTGTGGGA | 0.05
GGGGACACGTGATTAA | 0.12
TAAGGCACGTGTTGTG | -0.07
TTGTTCACGTGGCTTG | 0.31
AGGAGCACGTGAGTGA | -0.03
AGGTACACGTGGTGTT | -0.02
TTCGTCACGTGCGAGG | 0.16
TAGTGCACGTGATGGC | 0.14

Sequence | relative binding free energy [kcal/mol]
GTATTCACGTGCTGCT | 0.17
GACGTCACGTGTGGTG | 0.27
CGTAACACGTGGGGGC | -0.04
TGGTCCACGTGGAGTA | -0.11
CAAGGCACGTGTCGGT | -0.03
TGGAACACGTGCGGTG | 0.03
GGCGACACGTGAGGGG | 0.22
AATGACACGTGATTGT | 0.15
TAAATCACGTGTGGGA | 0.18
GATTTCACGTGTCGAG | 0.41
GTGTACACGTGAAGAG | 0.29
TCTTACACGTGGGGGG | 0.1
GGGGTCACGTGGAGAA | 0.16
GTGCGCACGTGGTAGA | -0.05
GTTGTCACGTGCTCTG | 0.03
AAGAACACGTGGGGTT | -0.17
TTAATCACGTGTGACA | 0.25
AGGTGCACGTGAGCAT | 0.08
AGATTCACGTGGGTGC | 0.24
GGCGGCACGTGTATTA | 0.06
TGGGTCACGTGTCTCA | 0.16
GGTAGCACGTGTTGCT | -0.03
ACTTTCACGTGGGTAG | 0.1
GTGGACACGTGTGCGT | 0
AGTTACACGTGATCGG | 0.13
GAAGGCACGTGGTCTG | -0.24

Sequence | relative binding free energy [kcal/mol]
GTCGCCACGTGTGTGT | -0.1
TAATTCACGTGTGTAA | 0.09
TTATTCACGTGGTTCT | 0.11
TTGCTCACGTGTTTAG | 0.25
ATTAGCACGTGTAAGA | 0.19
TGAAACACGTGGTGAG | -0.11
GTTAGCACGTGACGTT | 0.23
AGAGACACGTGGTAGG | -0.01
AGCGGCACGTGGCGTT | -0.29
TTTGTCACGTGAGTGA | 0.32
TATGTCACGTGGGCGA | -0.11
TATTTCACGTGCCAGT | 0.38
TTACGCACGTGAGTGA | 0.08
AGGTCCACGTGGTTAT | 0.11
CTTGGCACGTGGATTG | -0.1
TTGGCCACGTGGGCTT | -0.19
GGGGGCACGTGCTTCG | -0.17
AAGTACACGTGGTTTT | 0.1
CGCCGCACGTGTTGGG | -0.07
GTGGACACGTGTGGCG | 0.16
GTTGTCACGTGTATTT | 0.29
TGATACACGTGATCGG | 0.19
TCGGGCACGTGTGTTG | -0.03
GCAGTCACGTGGTTTG | 0.17
TTGGACACGTGAGGGA | 0.23
GGAAGCACGTGGTGAA | -0.16

Sequence | relative binding free energy [kcal/mol]
TTCTGCACGTGTAGCT | 0.03
CTGGGCACGTGGGCAC | -0.03
TGTATCACGTGAGTCT | 0.32
AGGGGCACGTGTTTTT | -0.1
GTATACACGTGTCGGT | 0.09
CGTAGCACGTGGGTCG | -0.22
TTGGTCACGTGAACTT | 0.4
TAGTGCACGTGAATAT | 0.14
TGCAGCACGTGACGGG | 0.01
TTTTACACGTGAGTGG | 0.22
AGTTACACGTGATGGA | 0.31
GGGTTCACGTGCTATG | 0.32
AGTTTCACGTGTGGAT | 0.21
ATTGTCACGTGGTAGA | 0.09
ATTTACACGTGAAGTA | 0.35
ATGCTCACGTGTGGAG | 0.26
GATTCCACGTGAGTGT | 0.31
AAATTCACGTGTTTAT | 0.27
TTTGTCACGTGTGAGA | 0.21
GCGTTCACGTGATGAG | 0.36
CTTGGCACGTGTGTAC | -0.1
TGGGGCACGTGTTCCT | -0.17
